For 32 sequences, binding signal results are on record in PMC12820563, “FoxP3 forms a head-to-head dimer in vivo and stabilizes its multimerization on adjacent microsatellites”.

Some of the results follow.

For this experiment, the target named is T1, MBP-FoxP1dN (Mus musculus, UniProt P58462 326-579).
T1 sequence: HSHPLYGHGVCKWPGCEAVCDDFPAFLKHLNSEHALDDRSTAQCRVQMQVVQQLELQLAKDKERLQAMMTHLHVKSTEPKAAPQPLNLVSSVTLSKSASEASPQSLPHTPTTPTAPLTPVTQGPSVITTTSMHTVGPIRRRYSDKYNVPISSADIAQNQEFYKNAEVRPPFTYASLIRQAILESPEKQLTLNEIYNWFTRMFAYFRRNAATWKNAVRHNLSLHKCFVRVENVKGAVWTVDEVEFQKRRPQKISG
As to the kind of experiment: PD-seq (MBP pull-down with sequencing); 20 mM Tris-HCl pH 7.5, 100 mM NaCl, 1.5 mM MgCl2, 0.4 uM protein, 0.1 uM dsDNA library, 30 min, room temperature, amylose pull-down; high values mean tight binding. The note with it: protein: recombinant; tags: His6-MBP; chain copies: 2; dsDNA, one strand shown. A digest of the protocol: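 A degenerate double-stranded DNA library, filled in with Klenow, was added at 0.1 µM to 0.4 µM His6-MBP-tagged mouse FoxP3 or FoxP1 fragment lacking the N-terminus, expressed in E. coli. Incubation lasted 30 min at room temperature in Tris pH 7.5 buffer with NaCl and MgCl2, after which complexes were collected on amylose resin, washed three times, digested with proteinase K to free the DNA, barcoded by PCR and sequenced by Illumina. Binding is the pooled-replicate reads-per-million enrichment of pull-down over input.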
Turning to “GATGATTGTTCTCCCAGCTGATGAATTCTGGTTGTCGAGTAAACAAATTTTCCTAATCTTTCTGTTCAAGCGCCATCTAC”, the binding signal was 1.08 RPM ratio (pull-down/input).

On to “GATGATTGTTCTCCCAGCTGATGAATTGGACCTATCGAGTAAACAAATTTTCCTAATCTTTCTGTTCAAGCGCCATCTAC”, for which the binding signal was 0.853 RPM ratio (pull-down/input).

Consider “GATGATTGTTCTCCCAGCTGATGAATTATGGTACTCGAGTAAACAAATTTTCCTAATCTTTCTGTTCAAGCGCCATCTAC”, for which the binding signal is 1.02 RPM ratio (pull-down/input).

In the case of “GATGATTGTTCTCCCAGCTGATGAATTATTGATATCGAGTAAACAAATTTTCCTAATCTTTCTGTTCAAGCGCCATCTAC”, the binding signal is 1.53 RPM ratio (pull-down/input).

As to “GATGATTGTTCTCCCAGCTGATGAATTCATACAGTCGAGTAAACAAATTTTCCTAATCTTTCTGTTCAAGCGCCATCTAC”, the binding signal was 0.952 RPM ratio (pull-down/input).

For the sequence “GATGATTGTTCTCCCAGCTGATGAATTGAATTTTTCGAGTAAACAAATTTTCCTAATCTTTCTGTTCAAGCGCCATCTAC”, the binding signal is 0.979 RPM ratio (pull-down/input).

For “GATGATTGTTCTCCCAGCTGATGAATTCGATCCCTCGAGTAAACAAATTTTCCTAATCTTTCTGTTCAAGCGCCATCTAC”, the binding signal is 0.798 RPM ratio (pull-down/input).

In the case of “GATGATTGTTCTCCCAGCTGATGAATTCTCCGGGTCGAGTAAACAAATTTTCCTAATCTTTCTGTTCAAGCGCCATCTAC”, the binding signal is 0.759 RPM ratio (pull-down/input).

Take “GATGATTGTTCTCCCAGCTGATGAATTAACGGAGTCGAGTAAACAAATTTTCCTAATCTTTCTGTTCAAGCGCCATCTAC”: the binding signal is 0.839 RPM ratio (pull-down/input).

For “GATGATTGTTCTCCCAGCTGATGAATTCTTATCATCGAGTAAACAAATTTTCCTAATCTTTCTGTTCAAGCGCCATCTAC”, the binding signal is 1.04 RPM ratio (pull-down/input).

Turning to “GATGATTGTTCTCCCAGCTGATGAATTGGGTAATTCGAGTAAACAAATTTTCCTAATCTTTCTGTTCAAGCGCCATCTAC”, the binding signal is 1 RPM ratio (pull-down/input).

Regarding “GATGATTGTTCTCCCAGCTGATGAATTACCGTACTCGAGTAAACAAATTTTCCTAATCTTTCTGTTCAAGCGCCATCTAC”, the binding signal is 0.988 RPM ratio (pull-down/input).

On to “GATGATTGTTCTCCCAGCTGATGAATTTGCCGGCTCGAGTAAACAAATTTTCCTAATCTTTCTGTTCAAGCGCCATCTAC”, for which the binding signal is 0.799 RPM ratio (pull-down/input).

For “GATGATTGTTCTCCCAGCTGATGAATTTGGCAAATCGAGTAAACAAATTTTCCTAATCTTTCTGTTCAAGCGCCATCTAC”, the binding signal is 1.07 RPM ratio (pull-down/input).

Consider “GATGATTGTTCTCCCAGCTGATGAATTGATATACTCGAGTAAACAAATTTTCCTAATCTTTCTGTTCAAGCGCCATCTAC”, for which the binding signal is 1.05 RPM ratio (pull-down/input).

For “GATGATTGTTCTCCCAGCTGATGAATTCAGTGTGTCGAGTAAACAAATTTTCCTAATCTTTCTGTTCAAGCGCCATCTAC”, the binding signal was 0.986 RPM ratio (pull-down/input).

In the case of “GATGATTGTTCTCCCAGCTGATGAATTGGCCACATCGAGTAAACAAATTTTCCTAATCTTTCTGTTCAAGCGCCATCTAC”, the binding signal is 0.966 RPM ratio (pull-down/input).

Take “GATGATTGTTCTCCCAGCTGATGAATTTACAAGATCGAGTAAACAAATTTTCCTAATCTTTCTGTTCAAGCGCCATCTAC”: the binding signal was 1.21 RPM ratio (pull-down/input).

In the case of “GATGATTGTTCTCCCAGCTGATGAATTCATCCCCTCGAGTAAACAAATTTTCCTAATCTTTCTGTTCAAGCGCCATCTAC”, the binding signal is 0.888 RPM ratio (pull-down/input).

Regarding “GATGATTGTTCTCCCAGCTGATGAATTCCGCTTCTCGAGTAAACAAATTTTCCTAATCTTTCTGTTCAAGCGCCATCTAC”, the binding signal is 0.813 RPM ratio (pull-down/input).

In the case of “GATGATTGTTCTCCCAGCTGATGAATTGCCAGCGTCGAGTAAACAAATTTTCCTAATCTTTCTGTTCAAGCGCCATCTAC”, the binding signal was 0.925 RPM ratio (pull-down/input).

With “GATGATTGTTCTCCCAGCTGATGAATTTTATCAGTCGAGTAAACAAATTTTCCTAATCTTTCTGTTCAAGCGCCATCTAC”, the binding signal was 0.902 RPM ratio (pull-down/input).

Take “GATGATTGTTCTCCCAGCTGATGAATTAACCGAATCGAGTAAACAAATTTTCCTAATCTTTCTGTTCAAGCGCCATCTAC”: the binding signal is 0.992 RPM ratio (pull-down/input).

On to “GATGATTGTTCTCCCAGCTGATGAATTTGTTTACTCGAGTAAACAAATTTTCCTAATCTTTCTGTTCAAGCGCCATCTAC”, for which the binding signal was 2.62 RPM ratio (pull-down/input).

As for “GATGATTGTTCTCCCAGCTGATGAATTTCCGACCTCGAGTAAACAAATTTTCCTAATCTTTCTGTTCAAGCGCCATCTAC”, the binding signal is 0.807 RPM ratio (pull-down/input).

Turning to “GATGATTGTTCTCCCAGCTGATGAATTGTATCCATCGAGTAAACAAATTTTCCTAATCTTTCTGTTCAAGCGCCATCTAC”, the binding signal is 1.18 RPM ratio (pull-down/input).

Regarding “GATGATTGTTCTCCCAGCTGATGAATTAGTGAGATCGAGTAAACAAATTTTCCTAATCTTTCTGTTCAAGCGCCATCTAC”, the binding signal was 0.857 RPM ratio (pull-down/input).

With “GATGATTGTTCTCCCAGCTGATGAATTTTCCCTGTCGAGTAAACAAATTTTCCTAATCTTTCTGTTCAAGCGCCATCTAC”, the binding signal was 0.824 RPM ratio (pull-down/input).

In the case of “GATGATTGTTCTCCCAGCTGATGAATTATCAAACTCGAGTAAACAAATTTTCCTAATCTTTCTGTTCAAGCGCCATCTAC”, the binding signal is 1.02 RPM ratio (pull-down/input).

In the case of “GATGATTGTTCTCCCAGCTGATGAATTAGCGCCTTCGAGTAAACAAATTTTCCTAATCTTTCTGTTCAAGCGCCATCTAC”, the binding signal is 1.01 RPM ratio (pull-down/input).

With “GATGATTGTTCTCCCAGCTGATGAATTACTAATTTCGAGTAAACAAATTTTCCTAATCTTTCTGTTCAAGCGCCATCTAC”, the binding signal is 1.25 RPM ratio (pull-down/input).

For “GATGATTGTTCTCCCAGCTGATGAATTCCCTAGTTCGAGTAAACAAATTTTCCTAATCTTTCTGTTCAAGCGCCATCTAC”, the binding signal is 0.777 RPM ratio (pull-down/input).
